Assay results taken from patent US9720005B2, “Immunoassay for compounds of the NBOMe family” (Randox Laboratories Limited, priority 2014, dated 2017).

System: polyclonal antibodies (RS2708 raised against the immunogen of Example 11)
Assay: Cross-reactivity on biochip platform (Evidence Investigator), Hapten 2-HRP conjugate vs cross-reactant
Settings: Table 3, concentration at which a negative response was elicited
Description: The antibody (RS2708) used to generate the data in the tables below (each of the Tables) was raised from immunogen 2 (Example 11) and the HRP tracer was prepared as in Example 12. With the exception of the data in Table 3, all IC50 and cross reactivity data were generated using the immunoassay of Example 13. The data in Table 3 were generated using the same antibody (RS2708) raised from immunogen 2 (Example 11) and the HRP tracer (Example 12) but were generated on a different immunoassay platform.
To test the cross-reactivity of the antibodies against a range of compounds, they were first immobilized on a biochip platform (9 mm×9 mm) (Randox Laboratories Ltd.), which was the vessel for the immunoreactions. The semi-automated bench top analyser Evidence Investigator was used (EV3602, Randox Laboratories Ltd., Crumlin, UK, patents—EP98307706, EP98307732, EP0902394, EP1227311, EP1434995 and EP1354623). The assay principle is based on competition for binding sites of the polyclonal antibodies (RS2708 raised against the immunogen of Example 11) between free antigen (cross-reactants) and labelled conjugate (Hapten 2-HRP, prepared as in Example 12). Assay dilutent (155 μl), calibrator/25I-NBOMe or potential cross-reactant (25 μl) followed by Hapten 2-HRP conjugate (120 μl) were added to the appropriate biochip. The biochips were then incubated for 30 minutes at 30° C. on a thermo-shaker set at 370 rpm. The biochips were then subjected to 2 quick wash cycles using the wash buffer provided, followed by 4×2 minute wash cycles. 250 μl of signal (1:1 luminol+peroxide, v/v) was then added to each biochip, and after 2 minutes the biochip carrier was imaged in the Evidence Investigator analyser. The system incorporates dedicated software to automatically process, report and archive the data generated (details can be found in FitzGerald, S. P. et al, Clin. Chem. 51(7); 1165-1176; 2005).

Row | SMILES | NEG RESPONSE Tested at Conc [ng/mL]
1 | COc1ccc(CC(C)N)cc1.Cl (centres unmarked) [PMA HCl] | 16
2 | CCC(C(=O)c1ccc2c(c1)OCO2)N1CCCC1 (centres unmarked) [MDPBP] | 16
3 | C[C@H](N)Cc1ccccc1 [D-Amphetamine] | 16
4 | CN[C@@H](C)C(=O)c1ccccc1 [S(−)Methcathinone] | 16
5 | CCCC(C(=O)c1ccc2c(c1)OCO2)N1CCCC1 (centres unmarked) [MDPV] | 16
6 | CCNC(C)Cc1cccc(C(F)(F)F)c1 (centres unmarked) [Fenfluramine] | 16
7 | CCNC(C)C(=O)c1ccccc1 (centres unmarked) [N-Ethylcathinone] | 16
8 | CC(N)Cc1ccccc1 (racemic) [(±) Amphetamine] | 16
9 | COc1cc(CCN)c(OC)cc1I [Compound 2C-I] | 16
10 | CCc1cc(OC)c(CCN)cc1OC [2C-E HCl] | 16
11 | COc1cc(CCN)c(OC)cc1Br [Compound 2C-B] | 16
12 | COc1ccccc1CNCCn1c(=O)[nH]c2ccccc2c1=O [RH-34] | 16
13 | CNC(C)Cc1ccc(OC)cc1.Cl (centres unmarked) [PMMA HCl] | 16
14 | CC(C(=O)c1ccc2c(c1)OCO2)N1CCCC1.Cl (centres unmarked) [MDPPP HCl] | 16
15 | CNC(C)Cc1ccc2c(c1)OCO2 (centres unmarked) [MDMA] | 16
16 | CNC(C)C(=O)c1cccc(F)c1 (centres unmarked) [3-Fluoromethcathinone] | 16
17 | COc1cc(CC(C)N)c(OC)cc1C (centres unmarked) [DOM] | 16
18 | COC(=O)C(c1ccccc1)C1CCCCN1 (centres unmarked) [Methylphenidate] | 16
19 | CC(N)Cc1ccc2c(c1)CCO2 (centres unmarked) [Compound 5-APDB] | 16
20 | CNC(C)C(=O)c1ccccc1 (centres unmarked) [Methcathinone] | 16
21 | COc1cc(CC(C)N)c(OC)cc1Br (centres unmarked) [DOB, 2,5-Dimethoxy-4-bromoamphetamine] | 16
22 | CC(N)Cc1ccc2c(c1)OCO2 (racemic) [(±) MDA] | 16
23 | CCc1cc(OC)c(CC(C)N)cc1OC (centres unmarked) [DOET] | 16
24 | C[C@@H](N)Cc1c2ccoc2c(Br)c2ccoc12 [Bromo-Dragonfly] | 16

Row | SMILES | NEG RESPONSE Tested at Conc [ng/mL]
25 | CCC(NC)C(=O)c1ccc2c(c1)OCO2.Cl (centres unmarked) [Butylone HCl] | 16
26 | CN[C@@H](C)Cc1ccccc1 [S(+)Methamphetamine] | 16
27 | Clc1cccc(N2CCNCC2)c1 [mcPP] | 16
28 | CNC(C)C(=O)c1ccc2c(c1)OCO2 (centres unmarked) [Methylone HCl] | 16
29 | CN[C@@H](C)[C@@H](O)c1ccccc1 [Pseudoephedrine] | 16
30 | CNC(C)C(=O)c1ccc(C)cc1 (centres unmarked) [Mephedrone] | 16
31 | CC(N)Cc1ccc2[nH]ccc2c1 (centres unmarked) [Compound 5-IT] | 16
32 | CN[C@@H](C)[C@H](O)c1ccccc1 [Ephedrine] | 16
33 | CNC(C)C(=O)c1ccc(F)cc1.Cl (centres unmarked) [Flephedrone HCl] | 16
34 | CCC(NC)C(=O)c1ccccc1 (centres unmarked) [Buphedrone] | 16
35 | CC(N)Cc1ccc2ccoc2c1 (centres unmarked) [Compound 6-APB] | 16
36 | CCCSc1cc(OC)c(CCN)cc1OC.Cl [2CT-7 HCl] | 16
37 | CN[C@H](C)C(=O)c1ccccc1.Cl [R(+)Methcathinone HCl] | 16
38 | CC(C)(N)Cc1ccccc1 [Phentermine] | 16
39 | CC(N)Cc1ccc2occc2c1 (centres unmarked) [Compound 5-APB] | 16
40 | CCNC(C)Cc1ccccc1 (centres unmarked) [N-Ethylamphetamine] | 16
41 | COc1cc(CC(C)N)cc(OC)c1OC (centres unmarked) [TMA] | 16
42 | CCNC(C)C(=O)c1ccc(C)cc1.Cl (centres unmarked) [Methylethcathinone HCl] | 16
43 | CNC(C)Cc1ccc2occc2c1 (centres unmarked) [Compound 5-MAPB] | 16
44 | C[C@H](N)C(=O)c1ccccc1.Cl (racemic) [(±) Cathinone HCl] | 16
45 | CCNC(C)C(=O)c1ccc2c(c1)OCO2.Cl (centres unmarked) [Ethylone HCl] | 16
46 | c1ccc(CN2CCNCC2)cc1 [BZP] | 16
47 | FC(F)(F)c1cccc(N2CCNCC2)c1 [TFMPP] | 16

Structures can show the parent of a compound that is named as a salt.
